Where “and” joins values, the source holds several entries; their conditions need not be identical. Identical values can stand only once. Hit rate of the full screen: of about 390,000 compounds, about 17,000 (4.4%) were called active. The inconclusive results got no clear call from the source; some entries with a clear call stand among them for comparison. Calls follow the shape of the dose curve; as a rule, active = well fitted inhibition curve with a large enough effect; inconclusive = small, poorly fitted or top-dose-only effect; inactive = no such curve, though single readings can be large or run the other way. Potencies beside an inconclusive call are fits to weak or partial responses and may not hold up.
The compounds below were run against Lysine-specific demethylase 4A (Homo sapiens) (UniProt O75164) (assay: qHTS Assay for Inhibitors of JMJD2A-Tudor Domain). Conditions: AlphaScreen JMJD2A-Tudor / H3K4me3 peptide binding; series mostly up to 114 µM.
Also: nearly all actives have a fitted effect of over 50% in size.
Potency is read from the fitted curve at half-maximal effect; tags tell the direction and shape of the fitted curve.

Sequence of UniProt O75164 (O75164 whole entry, looked up, the tested form may be a part): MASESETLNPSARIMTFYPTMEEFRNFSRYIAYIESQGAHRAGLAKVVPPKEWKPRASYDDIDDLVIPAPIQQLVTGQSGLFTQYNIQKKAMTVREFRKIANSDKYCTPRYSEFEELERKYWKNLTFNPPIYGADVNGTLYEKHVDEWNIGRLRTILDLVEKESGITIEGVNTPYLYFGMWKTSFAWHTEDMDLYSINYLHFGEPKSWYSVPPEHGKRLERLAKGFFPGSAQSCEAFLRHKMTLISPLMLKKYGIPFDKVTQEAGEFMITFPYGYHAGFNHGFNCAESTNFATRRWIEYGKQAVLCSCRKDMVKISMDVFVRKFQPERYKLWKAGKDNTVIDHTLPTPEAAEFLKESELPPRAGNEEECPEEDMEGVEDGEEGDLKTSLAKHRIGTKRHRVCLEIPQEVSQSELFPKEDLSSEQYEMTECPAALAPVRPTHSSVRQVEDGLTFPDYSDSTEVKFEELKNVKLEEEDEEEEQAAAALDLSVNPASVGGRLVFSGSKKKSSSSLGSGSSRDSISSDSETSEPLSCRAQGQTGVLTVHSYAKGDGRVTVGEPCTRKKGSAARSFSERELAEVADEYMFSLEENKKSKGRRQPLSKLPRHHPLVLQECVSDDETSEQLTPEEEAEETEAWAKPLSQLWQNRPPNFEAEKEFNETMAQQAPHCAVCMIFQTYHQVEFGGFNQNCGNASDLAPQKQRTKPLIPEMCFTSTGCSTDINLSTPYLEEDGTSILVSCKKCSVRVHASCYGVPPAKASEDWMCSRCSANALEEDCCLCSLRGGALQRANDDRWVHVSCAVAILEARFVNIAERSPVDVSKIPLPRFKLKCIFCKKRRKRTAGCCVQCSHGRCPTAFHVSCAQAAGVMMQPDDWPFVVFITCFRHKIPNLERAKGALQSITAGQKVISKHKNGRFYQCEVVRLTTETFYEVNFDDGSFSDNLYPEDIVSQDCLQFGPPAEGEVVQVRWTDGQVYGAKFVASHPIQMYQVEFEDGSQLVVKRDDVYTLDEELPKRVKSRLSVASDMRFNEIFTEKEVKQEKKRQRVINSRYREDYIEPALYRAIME

Potency, inactive:
COc1ccccc1CNC(=O)C(=O)NCC(c1ccco1)S(=O)(=O)c1ccc(F)cc1 (stereo not given)
O=[N+]([O-])c1cc(Oc2cccnc2)cc([N+](=O)[O-])c1
COc1ccc(NC(=O)Cn2ccn(-c3ccc(F)c(F)c3)c(=O)c2=O)cc1Cl
C1=C(c2ccccc2)CCN(c2nc3ccccc3n3cnnc23)C1
Cc1ccc(C(=O)NCCCNC(=O)c2ccc(C)nc2)cc1
COc1ccc(CNC(=O)c2cc3c(=O)n(Cc4ccco4)ccc3nc2C)c(OC)c1
Cc1ccc2c(CN3C(=O)NC4(CCCCC4)C3=O)cc(=O)oc2c1C
O=C(Cc1nc(-c2ccc(Br)s2)cs1)NCCN1CCOCC1
CN(C)c1cc(-c2ccc(Br)cc2)oc(=O)c1Cl
Cc1nn(C(C)C(=O)NCCCN2CCCCCC2)c(=O)c2cc3sccc3n12 (stereo not given)
CN(C)S(=O)(=O)c1cccc(COC(=O)c2cccnc2Cl)c1
CC1CCN(C(C(=O)NC2CCCCC2)c2cc3c(cc2[N+](=O)[O-])OCO3)CC1 (stereo not given)
CCC(C)NC(=O)C1c2ccccc2C(=O)N1Cc1cc(OC)ccc1OC (stereo not given)
O=C(O)c1cccc(N/N=C/c2ccc(-c3ccccc3)cc2)c1
CCc1ccc(C(=O)c2oc3nc(C)cc(C)c3c2N)cc1
Cc1cc(-c2cccs2)n[nH]1
O=C(CSc1nc(=O)n(Cc2ccccn2)c2c1CCC2)Nc1ccc(F)cc1F

Potency, active:
Cc1cc(C)cc(OCCN2CCOCC2)c1 28.2 µM
CN(Cc1nc2ccccc2c(=O)[nH]1)Cc1nc2ccsc2c(=O)[nH]1 79.4 µM
COc1ccc(C(=O)O)nc1C 5.62 µM
CCN(CC)c1ccc(NC(=O)COCc2cc(-c3ccc4c(c3)OCO4)on2)c(C)c1 20 µM
Nc1ccc(N=Nc2ccccc2Cl)c(N)n1 25.1 µM
CCN(CC(=O)Nc1cccc(OC)c1)CC(=O)Nc1ccc(C)cc1Cl 20 µM
S=c1[nH]cc(-c2ccccc2)n1-c1ccccc1Cl 50.1 µM
Clc1ccccc1OCCN1CCCCC1 22.4 µM
CCOC(=O)C1CCN(C(=O)CC(NS(=O)(=O)c2ccc(OC)cc2)C(C)C)CC1 (stereo not given) 15.8 µM
COC(=O)C1=C(C(=O)OC)SC(=C2C(=S)C(C)(C)N(C(=O)C(C)C)c3ccccc32)S1 11.2 µM
CN1CCN(C2=Cc3ccccc3Sc3cc(F)c(Cl)cc32)CC1 50.1 µM
Cn1c2ccccc2c(=O)c2c(=O)n(Cc3ccco3)c(COc3ccccc3)nc21 44.7 µM
Nc1ccc(O)c2c1C(=O)c1ccccc1C2=O 5.62 µM

Potency, inconclusive:
S=C(NCCCN1CCOCC1)N1CCN(c2nc(-c3ccc(Cl)cc3)cs2)CC1 25.1 µM [inhibitor, single point]
O=C(N/N=C/c1ccccn1)c1cc(-c2ccc(Cl)cc2)nc2ccccc12 31.6 µM [inhibitor, single point]
O=C(O)c1ccccc1C(=O)N1N=C2/C(=C/c3cccc([N+](=O)[O-])c3)CCCC2C1c1cccc([N+](=O)[O-])c1 (stereo not given) 79.4 µM [inhibitor, single point]
O=C(O)C1CN(c2ncccc2[N+](=O)[O-])C1 22.4 µM [inhibitor, full curve]
Cn1c(SCc2ccccc2)nnc1C1CCCNC1 (stereo not given) 5.01 µM [inhibitor, full curve]
O=C(Nc1nc(-c2ccc3c(c2)OCO3)cs1)c1ccncc1 63.1 µM [inhibitor, partial curve, poor fit]
CSc1ccc(NC(=O)Nc2cccn(Cc3ccccc3F)c2=O)cc1 44.7 µM [inhibitor, partial curve]
COC(=O)c1sc2nc(-c3ccccc3)nc(N3CCN(C)CC3)c2c1C 63.1 µM [inhibitor, partial curve]
COc1ccc(-c2c(-c3ccccc3)n(C)c3ccccc23)cc1 39.8 µM [inhibitor, partial curve]
COc1ccc(C2C(C(=O)c3sc(C)nc3C)=C(O)C(=O)N2CCCn2ccnc2)cc1OC (stereo not given) 56.2 µM [inhibitor, partial curve]
CC1CCC(NC(=O)CNC(=O)Cc2cccc3ccccc23)CC1 (stereo not given) 35.5 µM [inhibitor, single point]
COC(=O)c1ccc(CSc2nc3ccc(Cl)cc3[nH]2)o1 89.1 µM [inhibitor, single point]
CC(C)n1c(SC2C(=O)CC(C)(C)CC2=O)nc2c1c(=O)n(C)c(=O)n2C 79.4 µM [inhibitor, single point]
COc1ccc(C(=O)/C=C(\C)Nc2ccc(NC(C)=O)cc2)cc1 89.1 µM [inhibitor, single point]
CN(C)c1ccc(C(C(=O)NCc2ccccc2)N(Cc2cccnc2)C(=O)c2snc(C(N)=O)c2N)cc1 (stereo not given) 56.2 µM [inhibitor, partial curve, poor fit]
O=C(Nc1nnc(-c2ccccc2)o1)C1CCCN1S(=O)(=O)c1cccs1 (stereo not given) 79.4 µM [inhibitor, single point]
CCOC(=O)Cc1[nH]nc2c1C(c1cc(OC)ccc1OC)C(C#N)=C(N)O2 (stereo not given) 89.1 µM [inhibitor, single point]
O=C(CCCCCn1c(=S)[nH]c2cc3c(cc2c1=O)OCO3)N1CCN(C(=O)c2ccco2)CC1 100 µM [inhibitor, partial curve]
CCN1C(=O)C(O)(CC(=O)c2cccc(-n3cccc3)c2)c2ccccc21 (stereo not given) 44.7 µM [inhibitor, partial curve]
CCCS(=O)(=O)c1c(S(=O)(=O)CCC)c2c(N)cccn2c1C(=O)c1ccc(Br)cc1 50.1 µM [inhibitor, partial curve]
O=C(COC(=O)/C=C/c1ccccc1F)Nc1nnc(-c2ccccc2)o1 28.2 µM [inhibitor, partial curve]
CC(=O)C1=C(O)C(=O)N(Cc2ccccc2)C1c1ccco1 (stereo not given) 79.4 µM [inhibitor, single point]
CN(/N=C/c1ccc(O)cc1O)c1nc(-c2ccccc2)cc(-c2ccccc2)n1 63.1 µM [inhibitor, partial curve, poor fit]
O=C(NCc1ccccc1)c1onc(CSc2nc3ccccc3[nH]2)c1C(=O)NCc1ccccc1 56.2 µM [inhibitor, partial curve, poor fit]
COc1ccc(C(CCN2CCCC2)c2c(OC)cc(OC)c3c(-c4ccccc4)cc(=O)oc23)cc1 (stereo not given) 50.1 µM [inhibitor, full curve, poor fit] and 50.1 µM [inhibitor, partial curve]
O=C(CCN1CCN(S(=O)(=O)c2cccc([N+](=O)[O-])c2)CC1)Nc1ccccc1F 35.5 µM [inhibitor, full curve, poor fit]
C=CCc1ccc(O)c(-c2ccc(O)c(CC=C)c2)c1 63.1 µM [inhibitor, partial curve]
O=C(Nc1nc(-c2ccco2)cs1)c1ccccc1 50.1 µM [inhibitor, partial curve]
Nc1nn(S(=O)(=O)c2cccc3nsnc23)cc1-c1ccc(Br)cc1 50.1 µM [inhibitor, partial curve]
CC(=O)c1ccc(NC(=O)CSc2ccsc2[N+](=O)[O-])cc1 56.2 µM [inhibitor, partial curve, poor fit]
CN1c2ccccc2C(=O)/C(=C\Nc2ccc(F)cc2F)S1(=O)=O 39.8 µM [inhibitor, single point]
CCOC(=O)C1=C(CC)Nc2ccccc2N=C1NC(=O)c1ccc(S(=O)(=O)N(C)C)cc1 3.55 µM [inhibitor, single point]
COc1ccc(OC)c(C2C(C(=O)c3ccc(C)o3)=C(O)C(=O)N2c2cc(C)on2)c1 (stereo not given) 50.1 µM [inhibitor, partial curve]
CC(=O)NC1=NC(=O)/C(=C/c2cc(C)n(-c3cccc(C(=O)O)c3)c2C)S1 28.2 µM [inhibitor, single point]
COc1cccc(NC(=O)CN(C)C(=O)CCCc2c[nH]c3ccccc23)c1 4.47 µM [inhibitor, full curve, poor fit]
CC(=O)/C(=N/Nc1ccc([N+](=O)[O-])cc1)N1CCCc2ccccc21 10 µM [inhibitor, full curve]
COc1ccc(NC(=O)CCc2c(C)nn(-c3ccc(N4CCCC4)nn3)c2C)cc1Cl 14.1 µM [inhibitor, full curve, poor fit]
O=C(CC1C(=O)NCCN1Cc1ccc(-c2ccccc2)cc1)NCc1ccncc1 (stereo not given) 89.1 µM [inhibitor, single point]
CCc1ccc(CNC(=O)c2ccc3c(c2)c(C)c(C)n3Cc2ccccc2)cc1 10 µM [inhibitor, full curve, poor fit]
COc1ccc(OC)c(C2c3[nH]c4ccccc4c3C[C@H]3C(=O)N(CCCOC(C)C)CC(=O)N23)c1 (stereo not given in full) 44.7 µM [inhibitor, partial curve]

— PubChem BioAssay AID504339 (National Center for Advancing Translational Sciences (NCATS), 2011)
